# Laboratory results taken from paper PMC4336329 (PLoS ONE, 2015).
# Out of some 310,000 compounds screened, about 2,200 (0.71%) showed an effect of 50% or more. Effects have a minus sign here. Some of the results follow.
# Biological target: human ether-à-go-go-related gene (hERG) potassium channel (human, UniProt Q12809)
# Experiment: primary screen, population patch clamp on CHO cells stably expressing hERG
# human ether-à-go-go-related gene (hERG) potassium channel, sequence (Q12809 whole entry, looked up): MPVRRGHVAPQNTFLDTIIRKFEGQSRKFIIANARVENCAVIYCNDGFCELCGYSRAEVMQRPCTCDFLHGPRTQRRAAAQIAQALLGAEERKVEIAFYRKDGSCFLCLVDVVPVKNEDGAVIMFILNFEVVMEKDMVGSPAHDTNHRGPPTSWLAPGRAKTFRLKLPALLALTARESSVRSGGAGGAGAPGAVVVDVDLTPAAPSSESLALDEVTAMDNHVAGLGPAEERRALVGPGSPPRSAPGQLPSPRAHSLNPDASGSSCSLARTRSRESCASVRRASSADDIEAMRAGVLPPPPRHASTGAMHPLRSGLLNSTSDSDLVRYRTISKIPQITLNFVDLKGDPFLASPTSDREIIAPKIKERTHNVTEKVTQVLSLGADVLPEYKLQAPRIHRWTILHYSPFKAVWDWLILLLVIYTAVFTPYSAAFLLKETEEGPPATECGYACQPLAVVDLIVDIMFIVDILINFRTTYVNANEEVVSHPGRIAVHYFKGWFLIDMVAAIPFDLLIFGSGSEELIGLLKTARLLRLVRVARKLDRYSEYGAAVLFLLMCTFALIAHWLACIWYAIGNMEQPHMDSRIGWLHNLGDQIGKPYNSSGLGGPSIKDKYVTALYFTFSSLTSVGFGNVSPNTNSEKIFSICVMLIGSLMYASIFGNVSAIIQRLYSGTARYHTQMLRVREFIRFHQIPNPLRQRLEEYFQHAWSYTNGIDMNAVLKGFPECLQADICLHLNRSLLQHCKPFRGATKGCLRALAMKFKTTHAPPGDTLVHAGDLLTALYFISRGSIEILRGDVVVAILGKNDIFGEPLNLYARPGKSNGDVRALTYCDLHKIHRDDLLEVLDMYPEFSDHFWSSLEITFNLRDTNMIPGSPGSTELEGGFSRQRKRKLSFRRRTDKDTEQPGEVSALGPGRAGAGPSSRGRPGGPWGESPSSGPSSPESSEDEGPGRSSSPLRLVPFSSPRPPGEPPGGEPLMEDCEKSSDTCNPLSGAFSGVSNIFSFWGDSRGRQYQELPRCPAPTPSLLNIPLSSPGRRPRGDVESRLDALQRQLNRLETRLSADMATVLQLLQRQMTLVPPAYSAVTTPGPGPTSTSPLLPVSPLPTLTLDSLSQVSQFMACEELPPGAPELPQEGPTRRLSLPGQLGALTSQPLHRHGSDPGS
row,Compound,"hERG current change (%, negative = inhibition) at 1uM [%]"
1,O=C(Cn1nc(Cc2cccnc2)c2ccccc2c1=O)Nc1ccc2c(c1)OCO2,11.6
2,COc1ccc(NC(=O)c2cnc(SC)n2-c2ccc(F)cc2)c(OC)c1,12
3,Cc1cc([N+](=O)[O-])nn1CC(=O)Nc1ccc(F)cc1,10.8
4,CC1=C(C(=O)Nc2ccccc2C(F)(F)F)C(c2ccc(C)s2)NC(=S)N1 (stereo not drawn),10.1
5,Cc1ccc(NC(=O)C(=O)Nc2ccc(C)cn2)nc1,3.92
6,Cl.NC1=NC(c2ccccc2C(F)(F)F)N(c2ccc(F)c(Cl)c2)C(N)=N1 (stereo not drawn),14.7
7,COc1ccccc1NC(=O)C1CCCCC1,3.37
8,CCN1C(=O)C2CCCCN2c2ccc(C(=O)NCCOC)cc21 (stereo not drawn),16.5
9,O=C(CSCc1c(F)cccc1Cl)Nc1ccccc1C(=O)N1CCOCC1,0.65
10,O=[N+]([O-])c1ccc(N/N=C/c2c[nH]c3ccccc23)c(S(=O)(=O)Nc2ccc(Cl)cc2)c1,10.7
11,CCc1ccc(C(=O)COC(=O)c2ccc(-c3nnc(-c4ccccc4)o3)cc2)cc1,7.51
12,CCN(CC)CCCN(Cc1cc2cc3c(cc2[nH]c1=O)OCO3)C(=S)NCc1ccco1,-7.8
13,O=C(Cc1nnc(NC(=O)Nc2ccccc2F)s1)NCc1ccccc1,2.14
14,CCOc1ccccc1NC(=S)N1CCC(NC(=O)c2ccco2)CC1,6.6
15,Cc1ccc(C)c(Oc2coc3cc(OCC(=O)Nc4ccccc4C(C)C)ccc3c2=O)c1,10.4
16,CC(C)NCC(O)c1cc(O)cc(O)c1.O=S(=O)(O)O (stereo not drawn),16.8
17,O=C(NCc1ccccn1)c1cc2ccccc2oc1=O,11.8
18,COc1cc2cncc(Cc3ccc(Cl)cc3)c2cc1OC.CS(=O)(=O)O,2.88
19,O=C(Nc1c(Cl)cccc1Cl)C1CCC1,13.8
20,COc1ccc(NC(=O)COC(=O)COc2cccc3c2OC(C)(C)C3)cc1,14.9
21,O=C(CN1CCCCC1)Nc1ccc(Br)cc1[N+](=O)[O-],12.9
22,CC(=O)NCCOc1c(C)cc(S(N)(=O)=O)cc1C,15.2
23,NC(=O)c1ccsc1NC(=O)COC(=O)c1ccccc1F,9.85
24,COc1ccc(N(C(=O)c2ccn[nH]2)C(C(=O)NC2CCCC2)c2ccc(F)cc2)cc1 (stereo not drawn),6.73
